Test results from the RNAGym collection of RNA variant scans (doi:10.1101/gad.245936.114).
Variants at the floor of the assay are shown more often than the library holds them.

B1: tRNA (parent)
chain: CUCUCGGUAGCCAAGUUGGUUUAAGGCGCAAGACUUUAAUUUAUCACUACGAAAUCUUGAGAUCGGGCGUUCGACUCGCCCCCGGGAGAUUUUUUCCUCGAGCAA

Variants of: B1
Assay: nonsense suppression (GFP-seq) (ratio to wild type); higher = more function; SUP4oc tRNA, yeast GFP reporter sort-seq
How it was run: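 Raffinose/galactose medium with 80 mg/L adenine was used to grow yeast carrying genome-integrated tRNA variants (~3% random-mutation library), RFP, and a galactose-driven GFP ochre reporter. Cells went into GFP/RFP bins, which were Illumina-sequenced, and variants with ≥100 reads and ≥30 cells were scored. Nonsense suppression (GFPSEQ) is the per-bin median GFP/RFP weighted by estimated cell share and expressed relative to the unmutated parent tRNA.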

Row | Variant | nonsense suppression
1 | C5U U21G | ≤ 0.026
2 | G6C C12G G28U C82G | ≤ 0.026
3 | G6A G25C A33G | ≤ 0.026
4 | G6C U55A | ≤ 0.026
5 | C5U G7U G25A | ≤ 0.026
6 | G6C A33U G67A | ≤ 0.026
7 | C5U G10U U55A | ≤ 0.026
8 | G6C A14U G61U | ≤ 0.026
9 | C5U U8G C12A A24G C27U G66A | ≤ 0.026
10 | G6U A9G A13U G19U G28U C34G U58C C81G | ≤ 0.026
11 | G6U G10U | ≤ 0.026
12 | G6C A14G G18A | ≤ 0.026
13 | G6C C75U G85A | ≤ 0.026
14 | G6U U17G C83A | 1.15
15 | C5U G28C | 0.0292
16 | G6A G7U C27G G88U | ≤ 0.026
17 | G6A U76A C80A C83G | ≤ 0.026
18 | G6C U16C U71G G84U | ≤ 0.026
19 | C5U G66U C82G | ≤ 0.026
20 | G6U G66C A87G | ≤ 0.026
21 | G6C C29A G59C G69U | ≤ 0.026

Row | Variant | nonsense suppression
22 | G6C A33G G84U | ≤ 0.026
23 | G6A G26A G61C A87G | ≤ 0.026
24 | G6C A23C A60U C64U G78A C83G | ≤ 0.026
25 | G6A C11A U55G C75A | ≤ 0.026
26 | G6C U17G G59U U70C G86C | ≤ 0.026
27 | C5U U55G C68A A74U | ≤ 0.026
28 | C5U U20A A24G C64U | ≤ 0.026
29 | G6C U35G | ≤ 0.026
30 | C5U U35C | ≤ 0.026
31 | G6U A60G G67U | ≤ 0.026
32 | G6C G25A A33U U55G U57C U70A | ≤ 0.026
33 | G6U C27U C64A | ≤ 0.026
34 | G6U G67C U71G C82A G85A | ≤ 0.026
35 | C5U U17A U63C C80A | ≤ 0.026
36 | G6U C27A G61A U63A A87G | ≤ 0.026
37 | C5U U17C A54G A60C | ≤ 0.026
38 | G6C A60C G69U C79A | ≤ 0.026
39 | G6U G25U | ≤ 0.026
40 | C5U G85C G88U | ≤ 0.026
41 | G6A U71G | ≤ 0.026
42 | G6U G10U U21C U71G | ≤ 0.026

Row | Variant | nonsense suppression
43 | G6C A31G G59U | ≤ 0.026
44 | G6U C79U | ≤ 0.026
45 | C5U G18U C56G G66A | ≤ 0.026
46 | G6A U22G G26A | ≤ 0.026
47 | G6U C27G A62C C80U | ≤ 0.026
48 | G6C A14G A87G | ≤ 0.026
49 | C5U U8G C56A U58G U76G | ≤ 0.026
50 | G7A A9C G73A | ≤ 0.026
51 | G6U G66A | ≤ 0.026
52 | G6U A30U A89C | ≤ 0.026
53 | G6A G19C C34U A62C | ≤ 0.026
54 | G6U U8C C11U C12U U22G A24G G26C C68U G86C | ≤ 0.026
55 | C5U G85U | 0.0303
56 | C5U G18C | ≤ 0.026
57 | C5U G18U | ≤ 0.026
58 | G6U A13C U21C U63A | ≤ 0.026
59 | G6U G7C C82G G88A | ≤ 0.026
60 | G6C G25A G65U G67A G78C | ≤ 0.026
61 | G6A U8A | ≤ 0.026
62 | G6U U55A G69U A87G | ≤ 0.026
63 | G6A G61U G86U | ≤ 0.026

Row | Variant | nonsense suppression
64 | G6U U16G G26U G67C | ≤ 0.026
65 | C5U U16G A30G | ≤ 0.026
66 | G6A G66C C75G | ≤ 0.026
67 | G6C A9G U16A | ≤ 0.026
68 | G6U G15C G26U A54G | ≤ 0.026
69 | G6A G18U G28A C34U A89U | ≤ 0.026
70 | G6A G18U G28A C34U A89G | ≤ 0.026
71 | G6C C77G | ≤ 0.026
72 | G6C C77U | ≤ 0.026
73 | G6C U71A | ≤ 0.026
74 | G6C U71G | ≤ 0.026
75 | G6A G7U | ≤ 0.026
76 | G6A G7C | ≤ 0.026
77 | G6A C11A A74C | ≤ 0.026
78 | G6U C12G C34G C56U | ≤ 0.026
79 | G6U G61C U63G U71G | ≤ 0.026
80 | G6C U17A A54C U55A G73A | ≤ 0.026
81 | G6U U57G | ≤ 0.026
82 | C5U U22A C34A A54G | ≤ 0.026
83 | G6A C81U | 0.0651
84 | G6C A62C | ≤ 0.026
